# Source: PubChem BioAssay AID1347073 (National Center for Advancing Translational Sciences (NCATS), 2019)
# Among all 45,000 compounds or so, about 200 (0.44%) were called active. Another 7% or so got no clear call; they are omitted. Calls follow the shape of the dose curve; as a rule, active = well fitted activation curve with a large enough effect; inconclusive = small, poorly fitted or top-dose-only effect; inactive = no such curve, though single readings can be large or run the other way. Some of the results follow.
# Test: qHTS of TDP-43 Inhibitors: NCGC Sytravon Library Screen; also: 0% is about no effect; nearly all actives have a fitted effect of over 55% in size
# Conditions: yeast TDP-43 toxicity rescue, BacTiter-Glo growth, 24 h; series mostly up to 46.1 µM; growth rescue (activation): at the top concentration
# In short: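 TDP-43-expressing yeast, pregrown in raffinose, seeded at OD600 0.02 in galactose medium with compound for 24 hr at 30 deg C. Growth read by BacTiter-Glo luminescence, so rescue of toxicity appears as activation.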
row,Structure (SMILES),growth rescue (activation)
1,COc1cc(C(=O)NCCOc2cc(C)ccc2C(C)C)cc(OC)c1OC,inactive: 28.8%
2,O=C(CSc1nnc2ccccn12)NNC(=O)c1ccc(Br)cc1,inactive: -8.21%
3,O=C(O)C1(c2ccccc2)CCN(S(=O)(=O)c2cccc(Cl)c2)CC1,inactive: 7.99%
4,Cc1ccc(S(=O)(=O)N2CCCNCC2)cc1,inactive: 13.6%
5,COc1ccc(CCN(C)CC(=O)Nc2ccc(F)c(Cl)c2)cc1OC,inactive: 2.5%
6,C=CCc1cc(/C=C2/NC(=O)NC2=O)cc(OCC)c1O,inactive: 12.7%
7,O=C(Cc1c(F)cccc1Cl)NC1=NCCS1,inactive: -12.1%
8,Cc1cc(Oc2ccccc2F)nc(NCc2ccccc2)n1,inactive: 14.6%
9,Cc1ccc(NC(=O)c2ncn(-c3ccccc3)n2)c(Cl)c1,inactive: 17.6%
10,CC(=O)c1cccc(NC(=O)CCC(=O)c2ccc(F)cc2)c1,inactive: -16.2%
11,CCOc1ccc(CCNC(=O)C2=C(C)C(=O)OC23CCC(C)CC3)cc1OCC (stereo not given),inactive: 18.1%
12,CCC(CO)Nc1nc(CN2CCCCC2)nc2scc(-c3ccccc3)c12 (stereo not given),inactive: 13.9%
13,CN(C)C(=S)Nc1ccc([N+](=O)[O-])cc1,inactive: 18.5%
14,O=C1NC(=S)N/C1=C/c1cccn1-c1ccc([N+](=O)[O-])cc1,inactive: -7.92%
15,CCN(CC)c1ccc(NC(=O)CSc2nc3ccccc3c(=O)n2-c2cc(S(=O)(=O)N(C)C)ccc2C)cc1,inactive: -30.1%
16,Cc1cccc(COC(=O)C(Cc2ccccc2)NC(N)=O)c1 (stereo not given),inactive: 0.0955%
17,COc1ccc(-c2c(=O)n(OCc3ccccc3[N+](=O)[O-])c3ccccc3[n+]2[O-])c(OC)c1,inactive: -1.61%
18,O=[N+]([O-])c1cccc(S(=O)(=O)NCc2ccncc2)c1,inactive: 0.488%
19,Cc1cc(N2CCN(C)CC2)nc(N2CCOCC2)n1,inactive: 4.64%
20,Cc1cccc(C)c1NS(=O)(=O)c1ccc(OCCNS(C)(=O)=O)cc1,inactive: 8.63%
21,NC(=O)C1CCN(C(=O)CSc2nc3ccccc3o2)CC1,inactive: 28.4%
22,CC(=O)c1ccc(-c2nnc(CCC(=O)N(C)Cc3c(C)nc4ccccn34)o2)s1,inactive: 7.55%
23,CC(=O)Oc1ccc2c3c(c(=O)oc2c1C)CCCC3,inactive: 8.52%
24,O=C(COc1ccc(F)cc1)NCC1(N2CCCCC2)CCCCC1,inactive: -11.4%

row,Structure (SMILES),growth rescue (activation)
1,N#Cc1cccc(NC(=O)CSc2cccc[n+]2[O-])c1,inactive: 12.9%
2,O=C(COC(=O)c1c(F)cccc1F)Nc1ccc2[nH]c(=O)[nH]c2c1,inactive: -1.59%
3,CCN1CCN(CCCNC(=O)CNC(=O)c2nn(-c3ccc(OC)cc3)c(=O)c3ccccc23)CC1,inactive: -21%
4,Cc1cccc(-n2c(N)cc(=O)nc2SCC(=O)Nc2ccccc2)c1,inactive: 3.28%
5,Cc1ccc(OCC(O)CN2CC3(C)CC2CC(C)(C)C3)cc1 (stereo not given),inactive: -5.36%
6,Cc1ccc(Nc2ncc(C(=O)NCCCN3CCN(C)CC3)c3ccccc23)cc1Cl,inactive: 0.402%
7,CSc1ncccc1C(=O)Nc1ncc(C)s1,inactive: 3.18%
8,CC(=O)N1CCN(CCN=CC2=C(O)CC(c3ccc(Cl)cc3)CC2=O)CC1 (stereo not given),inactive: -17.6%
9,O=C(CCN1CCOCC1)NNC(=O)c1ccc(Cl)c([N+](=O)[O-])c1,inactive: 8.79%
10,COc1cccc(C(=O)Nc2ccc(C(F)(F)F)n(C)c2=O)c1,inactive: 4.87%
11,Cc1cccc(-n2c(=O)c3c(C)c(C)sc3n(CC(N)=O)c2=O)c1,inactive: -1.31%
12,COc1ccc(-c2cnc(N)nc2-c2ccc(OC)cc2O)cc1,inactive: 36.8%
13,CCOc1cc(C(=O)NCc2ccc(C)cc2)ccc1OCC(=O)N1CCOCC1,inactive: 5.4%
14,CCOc1ccccc1-c1nc(C(N)=O)c2[nH]c(=O)n(-c3ccccc3)c2n1,inactive: -30.1%
15,Cc1ccc(C(=O)O)cc1NC(=O)Nc1ccc2c(c1)OCO2,inactive: 4.97%
16,Cc1ccccc1NC(=O)Cc1nnc(SCC(=O)NC2=NCCS2)n1C,inactive: 5.37%
17,COc1cc(C2c3c(oc4ccccc4c3=O)C(=O)N2c2nccs2)ccc1O (stereo not given),inactive: -2.98%
18,Nc1nc(N2CCOCC2)n[nH]1,inactive: -2.51%
19,COc1ccc(CC(=O)NC(c2ccccc2)c2ccc(C)cc2)c(OC)c1 (stereo not given),inactive: 10.5%
20,COc1cccc(-c2cc(C(=O)N3CCOCC3)no2)c1,inactive: 12.5%
21,O=C(CCNC(=O)c1ccc([N+](=O)[O-])cc1)NCCc1ccc(Cl)cc1,inactive: 26.3%
22,Cc1cccc(NC(=S)NCCO)c1C,inactive: -12%
23,O=C(CN1c2cccc3cccc(c23)S1(=O)=O)Nc1ccc(F)c(F)c1F,inactive: -4.84%
24,COc1ccc(C(=O)C(C)OC(=O)CN2C(=O)c3ccccc3C2=O)cc1 (stereo not given),inactive: 11%

row,Structure (SMILES),growth rescue (activation)
1,COc1cc(/C=C2/NC(=O)N(Cc3ccccc3F)C2=O)cc(OC)c1OC,inactive: 5.56%
2,CN(c1ccccc1)S(=O)(=O)c1ccc(C(=O)NCCc2ccccc2)cc1,inactive: 21.6%
3,Cc1cnc(C)c(Nc2nc(C(N)Cc3ccc(C(F)(F)F)cc3)cs2)n1 (stereo not given),inactive: 9.08%
4,CC(=O)c1cccc(NC(=O)N2CCCC(C(=O)c3cc(F)ccc3F)C2)c1 (stereo not given),inactive: -0.616%
5,O=C(COC(=O)c1n[nH]c2ccccc12)NC1CCCCC1,inactive: 18%
6,CC1(C)Cc2c(C#N)c(NCc3ccco3)nc(-c3ccco3)c2CO1,inactive: 10.3%
7,COC(=O)c1ccccc1NCc1cc(=O)oc2cc(O)c(O)cc12,inactive: 5.51%
8,O=C(N/N=C/c1cccc2ccccc12)c1n[nH]c2c1CCCC2,inactive: 4.34%
9,CNC(=O)CS(=O)CC(=O)Nc1cc(OC(C)C)c(Cl)cc1Cl (stereo not given),inactive: -3.37%
10,C/C(CS(=O)(=O)c1ccc(Cl)cc1)=N/NC(N)=S,inactive: 1.94%
11,COc1cc(NS(=O)(=O)c2ccc(NC(=O)c3ccc(S(=O)(=O)N4CCCCC4)cc3)cc2)ncn1,inactive: 10.5%
12,CC(C)(C)C(=O)Nc1sc(-c2ccccc2)cc1C(=O)O,inactive: 14.4%
13,Cc1cc(-c2ccccc2)n2ncc(-c3ccccc3)c2n1,inactive: -4.74%
14,Nc1nnc(SCC(=O)Nc2cccc3ccccc23)s1,inactive: -10.1%
15,COc1ccc(OC)c(NC(=O)C2(C)CCN2C(=O)Cc2ccccc2)c1 (stereo not given),inactive: 7.89%
16,O=C(COc1ccc(Cl)cc1)NCCNC(=O)c1ccccn1,inactive: -4.15%
17,Oc1ccc(-c2csc(-c3cccnc3)n2)cc1O,inactive: -2.87%
18,C=CCOc1ccc(-c2nc3c(c(=O)[nH]c(=O)n3CCCC)n2C)cc1Br,inactive: 8.19%
19,COc1ccc(CN(C)C(=O)c2cccc(Oc3ccccc3)c2)c(OC)c1OC,inactive: 28.6%
20,CCn1c(CC(=O)Nc2ccc(F)cc2)nnc1SCC(=O)NC1CCCC1,inactive: -9.74%
21,COc1ccc(OC)c(/C=N/NC(=O)C(=O)N/N=C/c2cc(OC)ccc2OC)c1,inactive: 3.5%
22,NC(N)=NCC(O)CN(c1ccccc1)c1ccccc1 (stereo not given),inactive: 13.5%
